Drawing on PMC4242493, this text covers binding signal (normalized occupancy) for 172 sequences.

The other results are listed elsewhere or left out. The list includes weakly bound sequences.

This assay concerns the target MaxL homodimer (UniProt P61244). Put plainly: universal protein-binding microarray (PBM). The note with it: PBS-based mixture, 10 nM His-tagged protein dimer, 2% milk, 200 ng/uL BSA, 50 ng/uL salmon testes DNA, 0.02% TX-100; detection with Alexa 488 anti-His …; high values mean tight binding; most listed sequences are background and not binding sites; double strand, one strand shown.
Chain of UniProt P61244 (P61244 whole entry): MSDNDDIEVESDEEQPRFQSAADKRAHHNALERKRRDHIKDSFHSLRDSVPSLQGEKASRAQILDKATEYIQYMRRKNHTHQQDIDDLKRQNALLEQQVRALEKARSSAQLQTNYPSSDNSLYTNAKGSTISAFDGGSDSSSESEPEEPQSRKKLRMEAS
CCCCCAGG: the binding signal (normalized occupancy) was 0.0775. Take CGATTACA: the binding signal (normalized occupancy) was found to be 0.0781.

As for CAAATTAG, the binding signal (normalized occupancy) came out at 0.076. GTACCTAC: the binding signal (normalized occupancy) worked out at 0.0731. The same measure for ATTCAGAG: 0.0746; for GTACTGAA: 0.0753; for ACCTATGC: 0.0814. With GCCTTGAA the figure was 0.0743; with AGTTGCTA, 0.0827; with CGCGGAAA, 0.0721. As to AGGGTCTG, the binding signal (normalized occupancy) came to 0.0713. With CGTTCTGA the figure was 0.0731; with CACTTCGC, 0.0739; with AGTTCTAT, 0.0745. Take AGGCGTGA: the binding signal (normalized occupancy) was determined as 0.0829.

Regarding ACGAAGTA, the binding signal (normalized occupancy) stood at 0.0701. In the case of AGGCACGG, the binding signal (normalized occupancy) was 0.0755. Take GTGACCAC: the binding signal (normalized occupancy) came out at 0.0905.

For CCGCGCCC, the binding signal (normalized occupancy) was determined as 0.0711. With ACTTATCA the figure was 0.0772. With CGGATGAA the figure was 0.0745.

On to AGGATAGG, for which the binding signal (normalized occupancy) stood at 0.0757. With ATGTGACG the figure was 0.0922. For CATGGAGG, the binding signal (normalized occupancy) was 0.0891.

For GTACGTCA, the binding signal (normalized occupancy) came out at 0.0774.

Consider CAACCCGG, for which the binding signal (normalized occupancy) is 0.0721. The same measure for CCTACTCG: 0.0731; for AACATTAA: 0.0766. With GTCGTATA the figure was 0.0753; with ACAAACCC, 0.0812. The same measure for AGGCTGTG: 0.0774. For the sequence AATCACGA, the binding signal (normalized occupancy) was 0.0856. The same measure for AGTAAAGG: 0.0777; for GGGATCCA: 0.0773; for CGGGTCTC: 0.0802. On to CCTCCATA, for which the binding signal (normalized occupancy) was 0.0757. Turning to AATTAGCG, the binding signal (normalized occupancy) turned out to be 0.0757. Regarding CATGGCAG, the binding signal (normalized occupancy) was 0.0887. Consider CCATGATC, for which the binding signal (normalized occupancy) is 0.0848. In the case of GCTGTCCA, the binding signal (normalized occupancy) stood at 0.0722. The same measure for GTATCCAA: 0.0804. In the case of AAGAACAT, the binding signal (normalized occupancy) was 0.08.

AGCCCGTA: the binding signal (normalized occupancy) amounted to 0.0701. In the case of ATCGTCGA, the binding signal (normalized occupancy) amounted to 0.0747. With CGGAAACC the figure was 0.0708; with CCTGCTTC, 0.0796.

Take ACAGGAAT: the binding signal (normalized occupancy) came to 0.0733. In the case of CACTTGCG, the binding signal (normalized occupancy) was 0.0708. The same measure for AGTCGACA: 0.0694; for CTCCCATC: 0.0791. With CGCTTAAA the figure was 0.0748; with CGTGGCCA, 0.0949. Take GATCCGGC: the binding signal (normalized occupancy) was 0.0715. With AACCTAAT the figure was 0.0761.

Turning to GAAAGTCC, the binding signal (normalized occupancy) came out at 0.0715. In the case of AGCTTGGG, the binding signal (normalized occupancy) turned out to be 0.067.

As to CGATTTCA, the binding signal (normalized occupancy) came to 0.072.

CAAGAAGA: the binding signal (normalized occupancy) stood at 0.0723. The same measure for AGCGCGAG: 0.0756. The same measure for GCTGATAA: 0.0726. The same measure for ATCCTCAG: 0.0715. In the case of ATACCAGG, the binding signal (normalized occupancy) amounted to 0.0785. On to TCAATAAA, for which the binding signal (normalized occupancy) was 0.0772.

Turning to GACAACGA, the binding signal (normalized occupancy) was 0.0756. With ACGTAACG, the binding signal (normalized occupancy) stood at 0.0807. With GCCGGAAA, the binding signal (normalized occupancy) amounted to 0.0673.

On to CAAAAAAC, for which the binding signal (normalized occupancy) stood at 0.0728.

In the case of ATGTTAGA, the binding signal (normalized occupancy) amounted to 0.087. The same measure for CTCCCTCC: 0.0789. The same measure for CTGGCGTA: 0.0703; for ACGCCTCC: 0.0771.

With CAAGAAAA, the binding signal (normalized occupancy) turned out to be 0.0705. The same measure for CGTGGATC: 0.0908; for GGGGGTAA: 0.0894; for GAATTAGC: 0.0687. In the case of AAGAGATT, the binding signal (normalized occupancy) is 0.0754. The same measure for ACCGCGCT: 0.0774; for CGAGCGCG: 0.0726. With GAAATCAA the figure was 0.075; with ACCTCCCC, 0.0791. The same measure for ACAACTGT: 0.0734; for AGTCGGAG: 0.0653. Turning to TGACCTAA, the binding signal (normalized occupancy) was determined as 0.0776. With CCGCCGCG the figure was 0.0721. Take ATCTGTCC: the binding signal (normalized occupancy) turned out to be 0.0767. As to GCGCTTCA, the binding signal (normalized occupancy) was determined as 0.0716. In the case of CGCCCTTC, the binding signal (normalized occupancy) worked out at 0.0703. With GTACACGA the figure was 0.0882; with CAAAATGG, 0.0769; with AAGGCGGA, 0.0681. The same measure for CCGCGACG: 0.0667. GTATGGTA: the binding signal (normalized occupancy) amounted to 0.086.

Consider GAGAGCAC, for which the binding signal (normalized occupancy) turned out to be 0.0743. With GTTCTCGA the figure was 0.0775; with CATCAACA, 0.0833.

For the sequence ATGCAGCG, the binding signal (normalized occupancy) came to 0.0789. Take CCTTGCTA: the binding signal (normalized occupancy) was 0.0757. With AGATCAAC the figure was 0.0743; with CGATCGGC, 0.0727; with CAGATACG, 0.0757. Consider AACTACTT, for which the binding signal (normalized occupancy) came out at 0.0708. With TAGGAAAA the figure was 0.0729; with CGCAAACC, 0.0692. Consider AACCGGTC, for which the binding signal (normalized occupancy) was found to be 0.0695. As to ATATTACA, the binding signal (normalized occupancy) amounted to 0.0825.

Take GCGTCGAC: the binding signal (normalized occupancy) stood at 0.0729. Turning to ATTTCACA, the binding signal (normalized occupancy) turned out to be 0.0827. With CCTCGGAA the figure was 0.0713.

Regarding CAAGTATG, the binding signal (normalized occupancy) was found to be 0.0761. With GACAGAGA the figure was 0.0724. With AATGACGG the figure was 0.0719. With GACTTGTA the figure was 0.0839; with CTCCCCTC, 0.0763; with AGATCAAT, 0.0763. Consider AATTAACC, for which the binding signal (normalized occupancy) worked out at 0.0744.

On to AGGTCGAT, for which the binding signal (normalized occupancy) came to 0.0683. AGCAGGAC: the binding signal (normalized occupancy) is 0.0719. Take ATTTGACA: the binding signal (normalized occupancy) was found to be 0.0756.

As for GACCATGA, the binding signal (normalized occupancy) was 0.0823. The same measure for CCCCTCCG: 0.0772; for GGCACTAC: 0.0766. The same measure for ATGAGTAC: 0.0839; for GTAGATAC: 0.0776; for AGAGTATA: 0.0769. With GTCTGCCA the figure was 0.0726; with AAGACGCA, 0.0721.

As to AAGTGGTG, the binding signal (normalized occupancy) stood at 0.0758. With GCGCTGAA the figure was 0.0703. With CACTTTTA the figure was 0.0728; with AGTCAGTG, 0.0718. AACACCCA: the binding signal (normalized occupancy) was 0.0814.

Turning to CGGTGTAA, the binding signal (normalized occupancy) amounted to 0.0769.

Regarding AAGACCTA, the binding signal (normalized occupancy) was found to be 0.0715.

Take AGTGCGCG: the binding signal (normalized occupancy) was determined as 0.0797.

For the sequence AATGCCGA, the binding signal (normalized occupancy) worked out at 0.0701. For the sequence TATCCATA, the binding signal (normalized occupancy) stood at 0.0866.

On to GCGAGGAA, for which the binding signal (normalized occupancy) stood at 0.0761. On to CTCATAAG, for which the binding signal (normalized occupancy) is 0.0817. For the sequence AGCTTGAC, the binding signal (normalized occupancy) is 0.0693. The same measure for GACTTAAA: 0.0714; for GTAATCAA: 0.0769. Consider CATTAAAA, for which the binding signal (normalized occupancy) worked out at 0.0734.

For the sequence CGGCGCAC, the binding signal (normalized occupancy) came to 0.076.

As to ACAGCAAC, the binding signal (normalized occupancy) is 0.0753.

For the sequence CCCATAAA, the binding signal (normalized occupancy) came out at 0.0795.

CAGGGTGG: the binding signal (normalized occupancy) was found to be 0.079.

In the case of AAATCCAC, the binding signal (normalized occupancy) came to 0.0779. Turning to ACCAGCAG, the binding signal (normalized occupancy) worked out at 0.0754. Turning to CAAATGGG, the binding signal (normalized occupancy) is 0.0805. The same measure for CTATCAAC: 0.074; for CACTAGGG: 0.0765. For the sequence ATGCCGAA, the binding signal (normalized occupancy) came out at 0.073. With GTAACATA the figure was 0.0804. With CAATGGGA the figure was 0.0724; with CGGGATCA, 0.0802. In the case of AATATTCC, the binding signal (normalized occupancy) amounted to 0.0758. On to GGCAATGA, for which the binding signal (normalized occupancy) worked out at 0.0794. AACTTGTA: the binding signal (normalized occupancy) came out at 0.0732. The same measure for TAGGGCGA: 0.0729; for CACTGGCC: 0.0739. On to ACCAATCT, for which the binding signal (normalized occupancy) came to 0.0745. With TTGCTAAA the figure was 0.0733. With GAAAGTTC the figure was 0.0678; with AAGCTCTG, 0.0679; with CGGTAGGC, 0.0683. With CCTTGGTC the figure was 0.0668; with CACCTGGC, 0.103; with GCTTACAC, 0.0745.

Consider CTCACGTC, for which the binding signal (normalized occupancy) turned out to be 0.0821. With AGTGCTAT the figure was 0.0853.

In the case of ACACTTTG, the binding signal (normalized occupancy) was 0.0764. Regarding GCTCGCTA, the binding signal (normalized occupancy) was found to be 0.0764.
